# Laboratory results from PubChem BioAssay AID1347120 (National Center for Advancing Translational Sciences (NCATS), 2019).
# About 930 (0.24%) of roughly 390,000 compounds were called active. This list was built around the results that the source calls inconclusive (neither active nor inactive); the mix of calls is not that of the screen. The call rests on the fitted dose curve; in most records, active means well fitted activation curve with a large enough effect; inconclusive means small, poorly fitted or top-dose-only effect; inactive means no such curve, though single readings can be large or run the other way. A potency beside an inconclusive call is a rough fit, not a confirmed value.
# Experiment: qHTS for Suppressors of FUS Proteinopathy: Primary screen using FUS-linked yeast assay; further: nearly all actives have a fitted effect of over 55% in size;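 on growth rescue (activation): plate controls were DMSO vehicle for no effect and reference control for full effect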
# Conditions: S. cerevisiae FUS-expressing, OD600, 24 h; Potency: growth rescue; growth rescue (activation): at 76.6 µM (top of the series)
# Method in brief: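 Compound concentration series was pinned onto galactose-induced FUS-expressing yeast seeded at OD 0.005. Plates sat 24hr at 30C; absorbance at 600 nm gave growth. DMSO served as background control.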
# Potency means the concentration at half of the fitted maximal effect; tags describe the fitted curve by direction and shape.
SMILES,Potency,growth rescue (activation)
Cc1cc(C)cc(N(CCC#N)C(=O)CSc2nc3ccccc3c(=O)[nH]2)c1,inactive,–
COc1ccc(CCNC(=O)c2ccc3c(c2)CCN3S(=O)(=O)c2ccccc2)cc1OC,"inconclusive: 28.2 µM [activator, single point]",–
Cc1ccc(F)c(S(=O)(=O)NC(=O)C2(C)CCN2C(=O)Cc2ccsc2)c1 (stereo not given),inactive,–
Cc1coc2c(C)c3oc(=O)c(CCC(=O)N[C@@H](C)C(=O)N[C@@H](Cc4ccccc4)C(=O)O)c(C)c3cc12,"inconclusive: 28.2 µM [activator, single point]",–
CN1CCC2(CC1)N=C(c1ccc(F)cc1)C(=S)N2C(=O)c1ccc(C(C)(C)C)cc1,inactive,–
OC[C@@H]1CN(Cc2ccc(Cl)cc2)C[C@H](n2cnc3c(NCc4ccco4)ncnc32)O1,"inconclusive: 28.2 µM [activator, single point]",–
CCCCCCCCN1C(=O)[C@H](CC(=O)NCCCN2CCCC2=O)C[C@@]2(C(=O)OCC)CCCC=C12,"inconclusive: 35.5 µM [activator, single point]",–
Cc1cc(Nc2cccc(Cl)c2)nc2ccc(NC(=O)Cc3ccc(Cl)cc3)cc12,"inconclusive: 25.1 µM [activator, partial curve, poor fit]",–
COc1cc(N2C(=O)CSC23C(=O)N(Cc2cccc(F)c2)c2ccccc23)cc(OC)c1OC (stereo not given),inactive,–
O=C(O)CCCCCNC(=O)c1ccc(Br)cc1,"inconclusive: 3.98 µM [activator, full curve]",–
N#CCC[C@@H]1CC[C@]2(CCCN(C(=O)C3CCCCC3)C2)O1,inactive,–
C=CCNC(=S)Nc1ccc2cn[nH]c2c1,"inconclusive: 11.2 µM [activator, single point]",–
COc1ccc(-c2csc(NC(=O)CN3C(=O)C4CC=CCC4C3=O)n2)cc1OC (stereo not given),"inconclusive: 20 µM [activator, partial curve, poor fit]",–
COc1ccccc1N(CC(=O)N1CCC(C)CC1)S(=O)(=O)c1ccc(C)cc1,"inconclusive: 8.91 µM [activator, partial curve, poor fit]",–
Cc1ccc(S(=O)(=O)N2CCC(=O)N(C(COCc3cccc(C)c3)Cc3ccccc3)CC2)cc1 (stereo not given),"inconclusive: 28.2 µM [activator, single point]",–
Cc1ccc(NC(=O)CCNS(=O)(=O)c2ccc3c(c2)CCN3C(=O)C2CC2)c(Cl)c1,inactive,–
COc1cccc(CNC(=O)CSc2nc3ccccc3nc2Cc2ccc(C)cc2)c1OC,inactive,–
O=C(COC(=O)CCC(NC(=O)OCc1ccccc1)C(=O)OCC(=O)Nc1ccccc1)Nc1ccccc1 (stereo not given),"inconclusive: 8.91 µM [activator, partial curve, poor fit]",–
C[C@H]1[C@@H](NCc2cccs2)CC[C@@]23CCCN2C(=O)CCC[C@@H]13,inactive,–
O=C(CSc1nc2ccccc2[nH]1)NC(=O)NCc1ccco1,–,inconclusive: 84.3% [activator]

SMILES,Potency,growth rescue (activation)
Cc1ccccc1NC(=O)CC1S/C(=N/c2nccs2)N(C)C1=O (stereo not given),"inconclusive: 22.4 µM [activator, partial curve, poor fit]",–
Cc1ccc(-n2nc3c(=O)n(CC(=O)NCCc4ccco4)nc(C)c3c2C)cc1,"inconclusive: 50.1 µM [activator, single point]",–
COc1ccc(C(=O)Nc2ccc(C3=NNC(=O)CC3C)cc2NC(=O)c2ccc(OC)cc2)cc1 (stereo not given),inactive,–
O=C(Nc1nc2c(ccc3ccccc32)s1)c1ccco1,"inconclusive: 50.1 µM [activator, single point]",–
COc1ccc(Nc2ncc(C(=O)Nc3cc(Cl)c(OC)cc3OC)c3ccccc23)cc1,"inconclusive: 35.5 µM [activator, single point]",–
COc1cc(O)c([C@@H](CC(=O)N2CC(C)CC(C)C2)c2ccc3c(c2)OCO3)c(OC)c1 (stereo not given in full),active: 25.1 µM,–
COc1ccc(N2CCN(C(=O)c3ccc(Nc4nc5ccccc5n5nnnc45)cc3)CC2)cc1,"inconclusive: 31.6 µM [activator, single point]",–
COc1ccc(C(CC(=O)N2CCCC(C)C2)c2c(OC)cc(OC)c3c(-c4ccccc4)cc(=O)oc23)cc1 (stereo not given),"inconclusive: 31.6 µM [activator, single point]",–
CC(=O)N1CCCc2cc(S(=O)(=O)N3CCCC(C(=O)Nc4cccc(F)c4)C3)ccc21 (stereo not given),"inconclusive: 31.6 µM [activator, partial curve, poor fit]",–
COC(=O)[C@]12C[C@H](CC(=O)NCc3ccccc3)C(=O)N(CCc3ccc(OC)c(OC)c3)C1=C[C@H](C(C)(C)C)O[C@@H]2C,"inconclusive: 28.2 µM [activator, single point]",–
Cc1ccc(Nc2c(F)cccc2Cl)c(CC(=O)O)c1,inactive,–
Cc1nn(C2CCS(=O)(=O)C2)c(Cl)c1/C=C/C(=O)OCC(=O)c1c[nH]c2ccccc12 (stereo not given),"inconclusive: 25.1 µM [activator, single point]",–
CCN(C[C@H]1N[C@@](Cc2ccccc2)(C(=O)OC)[C@H]2C(=O)N(C)C(=O)[C@@H]12)S(=O)(=O)c1ccc(OC)cc1,"inconclusive: 11.2 µM [activator, partial curve]",–
O=C(COc1ccc(F)cc1Cl)Nc1nnc(-c2ccc(F)c(F)c2)o1,inactive,–
Cc1noc(Cn2c(=O)c3ccccc3n(CC(=O)Nc3ccc(Cl)cc3)c2=O)n1,inactive,–
C[C@@H]1Cn2cnc(C(=O)N[C@@H](C)C(=O)OC(C)(C)C)c2C(=O)N1,inactive,–
CCOc1ccc(C(=O)c2cn(Cc3ccc(OC)cc3)c3cc(OC)c(OC)cc3c2=O)cc1,"inconclusive: 28.2 µM [activator, partial curve, poor fit]",–
COc1cccc(-n2c(-c3ccco3)nc3c(cnn3-c3ccc(C)cc3)c2=O)c1,"inconclusive: 50.1 µM [activator, single point]",–
CC(=O)Nc1ccc(S(=O)(=O)NC2(C(F)(F)F)C(=O)Nc3c2c(=O)[nH]c(=O)n3-c2ccc(C)c(C)c2)cc1 (stereo not given),inactive,–
CC1=C(C(=O)N(C(C)C)C(C)C)CC(CC(=O)NCc2cccc3ccccc23)C(=O)N1Cc1ccc(C(C)(C)C)cc1 (stereo not given),active: 6.31 µM,–
